Test results as given in PubChem BioAssay AID924 (National Center for Advancing Translational Sciences (NCATS), 2007).
In all, about 130,000 compounds went through this assay and about 1,200 (0.92%) were called active. Inconclusive means that the source gave no clear call. Such entries were picked first, then a sample of the others. Calls come from the whole dose curve; as a rule, active = well fitted cell-killing curve with a large enough effect; inconclusive = small, poorly fitted or top-dose-only effect; inactive = no such curve, though single readings can be large or run the other way. A potency beside an inconclusive call is a rough fit, not a confirmed value.

Assay: qHTS Screen for Compounds that Selectively Target Cancer Cells with p53 Mutations: Cytotoxicity of p53ts Cells at the Permissive Temperature; note: nearly all actives have a fitted effect of over 55% in size;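 for activity change, negative = cytotoxicity: 0% = DMSO and -100% = full killing by reference compound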
Conditions: H1299-p53A138V at 32C, ATP luminescence viability, 24 h; activity change, negative = cytotoxicity: at 46.1 µM (top of the series)
Procedure, shortened: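 Viability by ATPlite luminescence after 24 h compound treatment (up to 46 uM) at the permissive 32C. Cells are H1299 carrying p53 A138V. Scale runs from DMSO basal to 100 uM tamoxifen as full kill; AC50 from Hill fits.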
Potency is the fitted concentration of half-maximal effect; tags give direction and shape of the fitted curve.

Question: Which “activity change, negative = cytotoxicity” value does the source give for `Cc1cccc(C)c1Nc1nc2ccccc2nc1NS(=O)(=O)c1ccccc1` here?
Answer: inactive: -3.13%

Question: Which “activity change, negative = cytotoxicity” value does the source give for `O=S(=O)(c1ccc2c(c1)CCN2)N1CCCCCC1` here?
Answer: inactive: -5.8%

Question: With `COC(=O)NC(/C(C(=O)OC)=C(\C)NCc1ccccc1)c1cccc(F)c1` (configuration not stated) as the molecule, how does the activity change, negative = cytotoxicity read?
Answer: inactive: -6.05% [at 9.22 µM]

Question: For `Cn1c(=N)c(S(=O)(=O)c2ccc(F)cc2)cc2c(=O)n3ccccc3nc21`, which “activity change, negative = cytotoxicity” value is on record?
Answer: inactive: 4.46%

Question: Which Potency does the source give for `O=C(Nc1ccc(-c2cn3ccsc3n2)cc1)C1CCCC1` here?
Answer: active: 5.01 µM

Question: With `OC[C@@H]1CCC[C@H](n2cnc3c(=S)nc[nH]c32)O1` as the molecule, how does the activity change, negative = cytotoxicity read?
Answer: inactive: -0.325% [at 9.22 µM]

Question: With `Fc1ccc(Cc2cn3cc(-c4ccccc4)nc3s2)cc1` as the molecule, how does the Potency read?
Answer: active: 3.16 µM

Question: Which Potency does the source give for `CCOC(=O)c1ccc(NC(=O)c2csnn2)cc1` here?
Answer: inconclusive: 15.8 µM [cytotoxic, partial curve]

Question: For `CN(C)c1ccc(CNS(=O)(=O)c2ccc3[nH]c4c(c3c2)CCCCC4)cc1`, which Potency is on record?
Answer: inconclusive: 6.31 µM [cytotoxic, single point]

Question: For `O=C(Nc1ccc2c(c1)OCO2)c1cccc(F)c1`, which Potency is on record?
Answer: inconclusive: 20 µM [cytotoxic, single point]

Question: With `C=CCNc1nc(N)c(C(=O)Nc2cc(C)on2)s1` as the molecule, how does the Potency read?
Answer: inconclusive: 25.1 µM [cytotoxic, single point]

Question: For `CCc1nnc(NC(=O)CSc2nc3c(cc2C#N)CCCC3)s1`, which Potency is on record?
Answer: active: 0.794 µM

Question: For `O=c1[nH]c(CSc2nc3ccccc3o2)nc2c1cnn2-c1ccccc1`, which Potency is on record?
Answer: inconclusive: 31.6 µM [cytotoxic, single point]

Question: For `COc1ccccc1N1CCN(c2nc3ccc(C)cc3n3nnnc23)CC1`, which “activity change, negative = cytotoxicity” value is on record?
Answer: inactive: 3.19%

Question: For `Cc1nn2c(=O)cc(COC(=O)c3cccc(NC(=O)c4ccc(C(C)(C)C)cc4)c3)nc2s1`, which Potency is on record?
Answer: active: 2.51 µM

Question: Which Potency does the source give for `Cc1ccc(-c2nc(-c3cccnc3)no2)c(C)c1` here?
Answer: inconclusive: 10 µM [cytotoxic, partial curve]

Question: For `O=C(Cc1ccc(NC(=O)N2CCCCc3ccccc32)cc1)NCc1ccccc1`, which Potency is on record?
Answer: inconclusive: 0.005 µM [cytotoxic, full curve, poor fit]

Question: With `CCOC(=O)c1c(C)[nH]c(C(=O)OC/C(O)=C(\C#N)c2nc3ccccc3[nH]2)c1C` as the molecule, how does the Potency read?
Answer: inconclusive: 31.6 µM [cytotoxic, single point]

Question: Which “activity change, negative = cytotoxicity” value does the source give for `CCN(CC)CCCNC(=O)c1cc2c(-c3ccc(Cl)cc3)nn(C)c2s1` here?
Answer: inactive: -4.06%

Question: For `CCOc1ccc(C(=O)c2cccs2)cc1`, which “activity change, negative = cytotoxicity” value is on record?
Answer: inactive: -6.23%

Question: With `COCC(=O)Nc1nc2ccc(C)cc2s1` as the molecule, how does the Potency read?
Answer: inconclusive: 10 µM [cytotoxic, partial curve]

Question: Which Potency does the source give for `Cc1ccc(C)c(NC(=O)C(=O)NCCc2csc3nc(-c4ccccc4C)nn23)c1` here?
Answer: inconclusive: 31.6 µM [cytotoxic, single point]

Question: With `CCOc1ccc(Br)cc1CNCCSc1nnnn1-c1ccccc1` as the molecule, how does the Potency read?
Answer: inconclusive: 3.55 µM [cytotoxic, full curve, poor fit]

Question: For `CCC(CC)c1nn2cc(-c3ccccc3)nc2s1`, which Potency is on record?
Answer: active: 5.01 µM

Question: Which Potency does the source give for `N/C(=N\O)c1cn([C@@H]2O[C@@H](CO)[C@H](O)[C@@H]2O)c2ncnc(NO)c12` here?
Answer: active: 2 µM

Question: With `Cc1ccc(C(=O)CC2(O)C(=O)N(Cc3ccccc3)c3ccc(Br)cc32)cc1` (configuration not stated) as the molecule, how does the Potency read?
Answer: inconclusive: 35.5 µM [cytotoxic, single point]

Question: Which “activity change, negative = cytotoxicity” value does the source give for `Cc1cccc(-n2c(SCC(=O)Nc3ccccc3C)nc3c(oc4ccccc43)c2=O)c1` here?
Answer: inactive: 10.8%

Question: For `CCc1ccccc1N1C(=O)N(C)c2ccccc2S1(=O)=O`, which “activity change, negative = cytotoxicity” value is on record?
Answer: inactive: -0.498%

Question: Which Potency does the source give for `COc1ccccc1NC(=O)Nc1ccc2c(c1)OCCO2` here?
Answer: active: 10 µM

Question: With `CCc1cc2c(NCC3CCCO3)ncnc2s1` (configuration not stated) as the molecule, how does the “activity change, negative = cytotoxicity” value read?
Answer: inactive: 6.32%

Question: Which Potency does the source give for `O=c1cc(-c2cccc(O)c2)oc2c(O)c(O)ccc12` here?
Answer: inconclusive: 15.8 µM [cytotoxic, partial curve]

Question: Which Potency does the source give for `CCC(Cc1ccccc1)NC(=O)Cn1ncc2c3ccccc3n(Cc3ccc(F)cc3)c2c1=O` (configuration not stated) here?
Answer: inconclusive: 7.94 µM [cytotoxic, partial curve]

Question: Which Potency does the source give for `Cc1cccc(NC2=C(NC(=O)c3ccccc3)C(=O)c3ccccc3C2=O)c1` here?
Answer: inconclusive: 1.12 µM [cytotoxic, partial curve, poor fit]

Question: For `COc1ccc(Cl)cc1NC(=O)CCCS(=O)(=O)c1nc(-c2ccc(OC)c(OC)c2)cc(C(F)(F)F)n1`, which Potency is on record?
Answer: inconclusive: 31.6 µM [cytotoxic, single point]

Question: For `CC(C)c1nn2c(=O)cc(COC(=O)c3ccccc3Cl)nc2s1`, which Potency is on record?
Answer: inconclusive: 5.62 µM [cytotoxic, partial curve]

Question: Which Potency does the source give for `Cc1ccc(-c2n[nH]c3c2C(c2cccs2)N(c2ccc(Cl)cc2)C3=O)cc1` (configuration not stated) here?
Answer: inconclusive: 14.1 µM [cytotoxic, single point]

Question: Which Potency does the source give for `Cc1ccc(NC(=O)CCCn2nc(C)c3sc4ccccc4c3c2=O)c(Cl)c1` here?
Answer: inconclusive: 6.31 µM [cytotoxic, partial curve]

Question: With `COc1ccc(-c2cc(C(=O)N3CCCc4ccccc43)no2)cc1` as the molecule, how does the Potency read?
Answer: inconclusive: 12.6 µM [cytotoxic, partial curve]

Question: With `COc1ccc(/C=C\C(=O)Nc2ccccc2C(=O)O)cc1OC` as the molecule, how does the Potency read?
Answer: active: 15.8 µM

Question: With `COc1cc2oc(-c3ccccc3)cc(=O)c2cc1O` as the molecule, how does the Potency read?
Answer: inconclusive: 6.31 µM [cytotoxic, full curve]

Question: With `COc1ccc(Nc2c3c(nc4nncn24)CCC3)cc1Cl` as the molecule, how does the “activity change, negative = cytotoxicity” value read?
Answer: inactive: 8.71%

Question: For `CCn1c(=O)cc(SCC(=O)N2CCN(c3ccccc3OC)CC2)c2ccccc21`, which Potency is on record?
Answer: inconclusive: 25.1 µM [cytotoxic, single point]

Question: With `Nc1ccc2oc(-c3cccc(Br)c3)nc2c1` as the molecule, how does the Potency read?
Answer: inconclusive: 15.8 µM [cytotoxic, partial curve]

Question: For `Fc1ccccc1Nc1ncnc2c1nc1n2CCCCC1`, which Potency is on record?
Answer: inconclusive: 22.4 µM [cytotoxic, single point]

Question: For `CCC1CN(C(=O)N2CCC(C(=O)N3CCN(c4cc(C)ccc4C)CC3)CC2)c2ccccc2O1` (configuration not stated), which Potency is on record?
Answer: inconclusive: 12.6 µM [cytotoxic, single point]

Question: Which Potency does the source give for `c1ccc(OCCSc2nnc3sc4ccccc4n23)cc1` here?
Answer: inconclusive: 12.6 µM [cytotoxic, partial curve]

Question: Which Potency does the source give for `Nc1ccc2nc(-c3ccccn3)[nH]c2c1` here?
Answer: inconclusive: 11.2 µM [cytotoxic, single point]
